Some of the results follow.
B1: 87970487_87970607_7243_CDS_ENSG00000188994_ENST00000369577|human|control|control (ssRNA)
RNA: GGGAGUUCUACAGUCCGACGAUCGUGUUGUGAUGUAAAUGCCUUAGAUAAUUUAUGGCACUUAUAAUGUCUAAUUAUAUUGCUUUCACUUGUAACAACUGAAGUACAUCCCUUUAUCAUACAUGGAUACUGGGUUACAAAUCUCAACAGAGGAUUGAGCAUCA
B2: chr2:27535424:27535425:-_ENSG00000115204_ENST00000380044|hu_mus|motif|central (ssRNA)
RNA: GGGAGUUCUACAGUCCGACGAUCUUUGGCCCAAUUGUCCUGGGCUGACAUUCCAUUGAGUAUCCCGACCAGUGGGAGAAAGCAGCCGGGGAAACAUGGGGCAAAGCCCCCCUGAUCUAACAACAUCUUCUUCAGUGCAUGCACCAACAGAGGAUUGAGCAUCA
B3: chr17:65740002:65740003:+_ENSG00000130935_ENST00000581375|hu_hu|hu_hu_hu_mus_False|8_68 (ssRNA)
RNA: GGGAGUUCUACAGUCCGACGAUCAACAAAUCUUUCUUCCCUGGACGAACAGGAAGAUUCAUAUUAACUUUAUAAAAUAUCCAUCAAGUUAGGUGUGGUGGCCACACCUUUACUCCCAGCACUUUGGGAAUAUAAUCUCUGAGUCAACAGAGGAUUGAGCAUCA
B4: chr1:60041781:60041782:+_ENSMUSG00000041040_ENSMUST00000036540|mus_hu|mus_mus_mus_hu_False|18_18 (ssRNA)
RNA: GGGAGUUCUACAGUCCGACGAUCAAGUUUACAAUAGUAAAGUAAAUGCAGUAGUGGCAAAUUUUCUUUUAUUUUCCUUCACAAAAGAAAAUCUUUAUAACCCAGUCCUAGUCUUGGCAGAGAAAGCAGCUAUAAAUUCUGACUCAACAGAGGAUUGAGCAUCA
B5: chr21:34923711:34923712:+_ENSG00000159140_ENST00000381679|hu_hu|FALSE|FALSE (ssRNA)
RNA: GGGAGUUCUACAGUCCGACGAUCCAUCUGGGAGUCCAUGGUGUUGGACGCUAGCAUUUGGGAGUCCAUGGUGUUGGAUGCUAAUAUAUGGGUCUCCAUGGUGUUAGAAGCUAAUAUAUGGGAUUCUGGGGCCAUCAAGGGAUCCAACAGAGGAUUGAGCAUCA
B6: chr11:53094105:53094106:-_ENSMUSG00000020361_ENSMUST00000020630|mus_mus|FALSE|FALSE (ssRNA)
RNA: GGGAGUUCUACAGUCCGACGAUCCAAUUUCUUGAGUUUCUCACACUCUUGAGACAGUCGUAAUAAAGCACGAAUUUUAGAUUUUAUGUCUAGCUUGUAUUUCUUUCCAAAUUCUUCACAGAAGUGAUUUACCAACACCUCAUCCAACAGAGGAUUGAGCAUCA
B7: 69878041_69878161_674_3pUTR_ENSMUSG00000052981_ENSMUST00000065118|mouse|control|control (ssRNA)
RNA: GGGAGUUCUACAGUCCGACGAUCGGGGUGCUGCUGUUGCUGCUGCUGCUUGUGGCCGCUGCUCUUACCACCACCUUUGCCGCGCAGCGAUGCGCUCUGCUGGCCGCCGCCUCCGCCACGGUGGUUGUGGUGGUGCUUGGGGUCCAACAGAGGAUUGAGCAUCA
B8: chr1:154686295:154686296:-_ENSMUSG00000042772_ENSMUST00000043560|mus_hu|FALSE|FALSE (ssRNA)
RNA: GGGAGUUCUACAGUCCGACGAUCACAUUUCGUGCACACUCAGCGGGCUGGUGGAAUACUUACACCCUCUUGACAGCGAGAAACAGAAAAGAGGGCUGCCACCUGCAGGGGACUGUGUGGGCCAGUCCUGCAAACCCAACAUGCCAACAGAGGAUUGAGCAUCA
B9: chr16:18284709:18284710:-_ENSMUSG00000022718_ENSMUST00000009321|mus_hu|FALSE|FALSE (ssRNA)
RNA: GGGAGUUCUACAGUCCGACGAUCAACCACUGCCUCAAUUAUUGGAAAUCACAAUGCACUCAGCUUAAGUGACUGGCGACUAAGCGAGUCUGUCUUCAUGCCGGAGUGGCACCUUUCUUCUUCUACCUGAGGCGCCCGCGGGCUCAACAGAGGAUUGAGCAUCA
B10: chr8:117878989:117878990:-_ENSG00000164754_ENST00000297338|hu_hu|hu_hu_hu_mus_True|28_98 (ssRNA)
RNA: GGGAGUUCUACAGUCCGACGAUCCCAGAGGCCCUCGUUUACUGAGAACAAAAUGUGCGUAGAACAUUUUUCUUAUUUGCUAUGAAAUAAGAAGAAACCUGGAUCUCCCGCUGGGAGCGGGAGGGGUGGGUGGCCCGGGGAGGGCAACAGAGGAUUGAGCAUCA
B11: chr1:63355414:63355415:+_ENSMUSG00000027520_ENSMUST00000029025|mus_hu|FALSE|FALSE (ssRNA)
RNA: GGGAGUUCUACAGUCCGACGAUCUGUCACCCUCUUUCCAUGAAUUUUCUUUUUACUUUGACUUUCCAAAAGCUUAUUUCUAACUGAUUUUGGAGAGAUUUUGACAACAUCAUGAUUUAAAAAUGUUAGCUGGAAAUUUCUUUUCAACAGAGGAUUGAGCAUCA
B12: chr7:17002144:17002145:+_ENSMUSG00000059273_ENSMUST00000098789|mus_mus|FALSE|FALSE (ssRNA)
RNA: GGGAGUUCUACAGUCCGACGAUCUCUCUUGUCCUCCAGGGGGGUCCUGGACCUCCUCAGCCCCGUCGUCUUCCAGUUCACCUUCUUCCAACUCACCAUCUUCCCUUCCCCUCAGCAUGGCGCCCAAAAAAAGACAGAGCGAGACAACAGAGGAUUGAGCAUCA
B13: chr10:71978566:71978567:-_ENSG00000180817_ENST00000373232|hu_hu|FALSE|FALSE (ssRNA)
RNA: GGGAGUUCUACAGUCCGACGAUCUAAAGGGUCCUUUGUAGCAAUCUCCAUUUUUGCAUUAGACCAGCGUGGUACUUCAACUACCAUGUGAAACACAUCCUUAUCUGCAUAAAUUGGAAUAUCAUGAAAUGGAGAUAUAUAUUGCAACAGAGGAUUGAGCAUCA
B14: chr3:151883435:151883436:+_ENSMUSG00000028034_ENSMUST00000166984|mus_hu|FALSE|FALSE (ssRNA)
RNA: GGGAGUUCUACAGUCCGACGAUCCAUCUCUCCAUUUCUUCCUAUUACAAUGCCAACAGCAAAUCUUGGAAUGGGGACAUCUAUCCCUUCAUUUCCUCCUAUUCUUGACCCAUACUCAUUCCGAACUUCUCUGAAACCGCCUUGCAACAGAGGAUUGAGCAUCA
B15: chr8:127356239:127356240:+_ENSMUSG00000036913_ENSMUST00000167588|mus_hu|FALSE|FALSE (ssRNA)
RNA: GGGAGUUCUACAGUCCGACGAUCGCCCAGGCUCAAUCCGGAAAGCACCACCCUCCUCAAACUUGGUGGGCCAUAGGGCACCUAGGGCGCUGUUGCAACUACAAAGUACAUAUCAGGCUGAAGAUGCAGCCUGGAAAUAUAUACCAACAGAGGAUUGAGCAUCA
B16: 86284157_86292676_1654_3pUTR_ENSG00000135018_ENST00000376395|human|control|control (ssRNA)
RNA: GGGAGUUCUACAGUCCGACGAUCGCAGACAACAUGUUUUGCAUCAGUUGUGGGUUUUCAGUUAUUUGUUGCAACAAGCUCUGCAUUCCUGGUGUGUUGAACAUACUAGCUCCUACUCCAGGCACCAAAUUUGGCGCAGUAGUACAACAGAGGAUUGAGCAUCA
B17: chr5:69958400:69958401:+_ENSMUSG00000029208_ENSMUST00000154728|mus_mus|FALSE|FALSE (ssRNA)
RNA: GGGAGUUCUACAGUCCGACGAUCGUCAUAAAAAUCUACCACAAUUUCAUUCAAAGGGAAGAGAUAUUUAAGCAUAACUCUAUUUUCAUCAAUAAAAGUCAUAUUUUUCUGAAUUGCUCUUCGUGCCUGACAAAGCGCCAUUAUCAACAGAGGAUUGAGCAUCA
B18: chr1:109605286:109605287:-_ENSG00000197780_ENST00000461096|hu_mus|hu_hu_hu_mus_True|38_58 (ssRNA)
RNA: GGGAGUUCUACAGUCCGACGAUCAAGUUUCAGAGUAACAUUCAGUAACCUCUUUAAAUGCAAUUAUCCUUAUUAUAAACUAAGGGCAAUAAUAAUUUAAUACAUAGAGUGAACUACACACAAAGCCUGAACCGCGAAAAUGGUCAACAGAGGAUUGAGCAUCA
B19: chr18:21005031:21005032:-_ENSMUSG00000033382_ENSMUST00000025177|mus_hu|FALSE|FALSE (ssRNA)
RNA: GGGAGUUCUACAGUCCGACGAUCAAACUUCCAAAGCAAUGACAAAUCAGUCAACAAAAGUAGAACUUUCAAAGGGUUUCUAAAAGCCACUUCCACUGUAAUUGGUUCUUCUACAACUGCAAGUGGAAAUCUUGAAUUAUCUGACAACAGAGGAUUGAGCAUCA
B20: chr2:47387770:47387771:-_ENSG00000143933_ENST00000272298|hu_mus|hu_hu_hu_mus_True|8_38 (ssRNA)
RNA: GGGAGUUCUACAGUCCGACGAUCAAGGUUUAAGGACAAUGACAGUAAGAUAAGGGAAGAAAACAUGGAGGAAUGAAGUCCUAAUUACUAUACAUGCAUAUUUUUUUACAGUAGGGGGGGGGAACCUUACAGAUAAGAGUUACACAACAGAGGAUUGAGCAUCA
B21: chr8:95500983:95500984:-_ENSG00000164944_ENST00000437199|hu_hu|hu_hu_hu_mus_True|18_48 (ssRNA)
RNA: GGGAGUUCUACAGUCCGACGAUCAGAACACAUCUAUCGAGUAAAGGACCGUACAUGACGGCCUCUACCACUGCCUCCACUAACAAAACUUUCCUCUGAGCCUCCACUGCCGCUAUUUUGCACUAGCCAGGACGGUCCCAGGCCCAACAGAGGAUUGAGCAUCA
B22: chr18:34474267:34474268:+_ENSMUSG00000005871_ENSMUST00000115781|mus_mus|FALSE|FALSE (ssRNA)
RNA: GGGAGUUCUACAGUCCGACGAUCUUCUGAUUCAGUUUCAUUCCCAUUGUCGUUUUCCUGAACUGGAGGCAUGAUUCUUAAUUCUACAUCUUUCUGUAUAAAUGGCUCAUCCAGGCUCAGAGCACUUAGGCUGGAGGAACAAGACAACAGAGGAUUGAGCAUCA

molecular target: T1, UNK ZnF1-3 (human, UniProt Q9C0B0 31-174); experiment: nsRBNS (natural sequence RNA bind-n-seq); RBNS binding buffer (assumed for nsRBNS): 25 mM Tris pH 7.5, 150 mM KCl, 3 mM MgCl2, 0.01% Triton X-100, 500 ug/ml BSA, 20 U/ml SUPERase-In, 4 C; UNK is unkempt and MSI1 is Musashi-1; names of the RNAs are library labels; protein concentration not given here; high values mean tight binding
T1 sequence: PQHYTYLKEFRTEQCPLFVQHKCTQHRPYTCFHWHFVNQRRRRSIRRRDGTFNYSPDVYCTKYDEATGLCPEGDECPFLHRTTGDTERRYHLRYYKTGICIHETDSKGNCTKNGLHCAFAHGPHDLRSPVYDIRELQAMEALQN

Binder | binding signal
B1 | 0.585 enrichment R
B2 | 0.784 enrichment R
B3 | 0.874 enrichment R
B4 | 0.931 enrichment R
B5 | 1.73 enrichment R
B6 | 0.621 enrichment R
B7 | 0.477 enrichment R
B8 | 0.675 enrichment R
B9 | 0.958 enrichment R
B10 | 1.27 enrichment R
B11 | 0.746 enrichment R
B12 | 1.12 enrichment R
B13 | 0.536 enrichment R
B14 | 0.952 enrichment R
B15 | 1.01 enrichment R
B16 | 0.776 enrichment R
B17 | 0.84 enrichment R
B18 | 0.994 enrichment R
B19 | 0.557 enrichment R
B20 | 2.32 enrichment R
B21 | 1.2 enrichment R
B22 | 0.769 enrichment R

Reference: publication PMC12136788
